Data from PubChem BioAssay AID463173 (ICCB-Longwood Screening Facility, Harvard Medical School, 2010).
Among all 52,000 compounds or so, about 4,300 (8.3%) were called active. No stated cut-off is given here; in the data, active means survival mostly below about 52% (no sharp cut-off); inactive means mostly above about 56%. This is one part of the list.

The compounds below were run on DeltatarO mutant (assay: S. aureus survival, RN4220 and DeltatarO strains – OD600, teichoic acid synthesis inhibitors, primary screen (AID 463173)). Details: S. aureus RN4220 wild type/DeltatarO growth, OD600, 18 h, hits give low values, screened at 18.75 µg/mL (by protocol).
In the case of N#Cc1c(NC(=O)c2cc3nc(-c4ccc(Br)cc4)cc(C(F)(F)F)n3n2)sc2c1CCCC2, the survival was active: 32%.
In the case of C1CN(c2nc(N3CCOCC3)nc(N3CCOCC3)n2)CCN1, the survival was inactive: 95%.
With CC(C)N(Cc1ccccc1)C(=O)CCS(=O)(=O)c1cc2c(cc1Cl)NC(=O)CO2 the survival was inactive: 103%.
For Cc1cc(NC(=O)C(C)C)cc(-c2nc3ncccc3o2)c1O, the survival was inactive: 90%.
In the case of Cc1ccc2nc(-c3ccc(O)cc3)c(Nc3ccc4c(c3)OCO4)n2c1, the survival was inactive: 73%.
For Cc1cc(C)n2nc(SCC(=O)Nc3ccccc3)nc2n1, the survival was inactive: 68%.
For C=CCSc1nnnn1-c1ccc(OC)cc1, the survival was inactive: 95%.
In the case of COc1cc(-c2nnc(SCC(=O)Nc3ccc(F)c(Cl)c3)o2)cc(OC)c1OC, the survival was inactive: 110%.
With CCCNC(=O)C1CCN(S(=O)(=O)c2ccc3c(c2)CCCN3C(C)=O)CC1 the survival was inactive: 120%.
In the case of CC1CC(C)CN(c2nc3c(c(=O)[nH]c(=O)n3C)n2Cc2ccccc2F)C1 (centres undefined), the survival was inactive: 97%.
For Cc1cc2nc(-c3cc(NC(=O)c4cc5ccccc5o4)ccc3Cl)oc2cc1C, the survival was inactive: 50%.
In the case of COc1cccc(C(=O)Nc2ccccc2OCc2cc(=O)n3cc(C)ccc3n2)c1, the survival was inactive: 95%.
With CCc1ccc(NC(=O)CSc2nc3n[nH]c(C)c3c(=N)n2-c2ccccc2C)cc1 the survival was inactive: 92%.
Cc1oc(-c2ccc(Cl)cc2)nc1CS(=O)CC(=O)NCc1ccc(Cl)cc1 (centres undefined) was tested, and the survival was inactive: 63%.
With CCCCOc1ccc(CNC(=O)C2CCN(c3nnc(-n4cccc4CNc4ccc(C)cc4)s3)CC2)cc1 the survival was inactive: 76%.
With CC(C)NC(=O)CSc1nc2ccccc2n1CC(=O)N1CCOCC1 the survival was inactive: 83%.
For COc1ccc2c(c1)CCc1c(C(=O)Nc3cc(C)ccc3O)noc1-2, the survival was inactive: 74%.
For Cc1ccc(-c2nc3cc(C(C)C)ccc3o2)cc1NC(=O)c1cccs1, the survival was inactive: 57%.
COc1cc(Cn2c(=O)sc3ccccc32)ccc1OC(C)C was tested, and the survival was active: 40%.
COCCn1c(C)cc(O)c(C(c2ccccc2)N2CCN(C)CC2)c1=O (centres undefined) was tested, and the survival was inactive: 95%.
For CC12CCCCN1CCCc1c2[nH]c2ccccc12 (centres undefined), the survival was inactive: 86%.
With COC(=O)c1cccc(Nc2c(-c3ccc(O)c(OC)c3)nc3nc[nH]n23)c1 the survival was inactive: 92%.
In the case of CCOc1ccc(-c2c(C)nn3c(C)c(C(=O)Nc4ccccc4C(=O)OC)cnc23)cc1OCC, the survival was active: -4%.
In the case of COCc1cc(C)nc2sc3c(c12)NC(c1ccc(O)cc1)N(c1ccc(OC)cc1)C3=O (centres undefined), the survival was inactive: 76%.
With CCOc1ccc(NC(=O)C2Cc3ccccc3N2C(=O)c2ccccc2)cc1 (centres undefined) the survival was inactive: 67%.
For CCOc1ccc2[nH]c(=O)c(CN(Cc3cccnc3)S(=O)(=O)c3ccccc3)cc2c1, the survival was inactive: 86%.
CCOc1ccc(-c2nnc(SCC(=O)NCCC(C)C)nc2-c2ccc(OCC)c(OC)c2)cc1OC was tested, and the survival was inactive: 94%.
In the case of Cc1cn2c(=O)c(S(=O)(=O)NCCc3ccccc3)c(C)nc2s1, the survival was inactive: 99%.
CC(C)CN1CCc2nc(N3CCN(c4ncccn4)CC3)ncc2C1 was tested, and the survival was inactive: 72%.
In the case of COc1cccc(C(=O)NCC(c2ccc(N(C)C)cc2)N2CCCC2)c1OC (centres undefined), the survival was inactive: 94%.
Nc1ccc(S(=O)(=O)NCc2ccncc2)cc1 was tested, and the survival was inactive: 85%.
In the case of COc1ccc(CNC(=O)Cc2csc3ccccc23)cc1OC, the survival was inactive: 82%.
For COc1cccc(NC(=O)CCNS(=O)(=O)c2ccc(Br)s2)c1, the survival was active: 37%.
CC1=CC(C)C2C(=O)N(c3ccccc3)C(=O)C2C1 (centres undefined) was tested, and the survival was inactive: 70%.
In the case of CC(NC(=O)c1cc(Sc2ccc(F)cc2F)nc2ccccc12)c1ccccc1 (centres undefined), the survival was inactive: 69%.
In the case of Cc1cccc(NC(=O)N2CCc3c(sc4c3CCCC4)C2c2ccc(F)cc2)c1 (centres undefined), the survival was active: 37%.
For COc1cccc(-n2c(=O)c3c(C)c(C(=O)N(C)C)sc3n(CC(=O)NCCc3ccc(OC)c(OC)c3)c2=O)c1, the survival was inactive: 69%.
In the case of COc1ccc(-c2nc(C)c(CCNC(=O)Cc3ccc(F)cc3)s2)cc1OC, the survival was inactive: 83%.
With CCc1ccc(NC(=O)C2CCN(C(=O)N3CC(CC)Oc4ccccc43)CC2)cc1 (centres undefined) the survival was inactive: 58%.
CCc1ccc(NC(=O)CSc2nc3nccnc3c(=O)n2CCc2c[nH]c3ccccc23)cc1 was tested, and the survival was inactive: 88%.
In the case of COc1ccc2nc(SCC(=O)c3c(C)[nH]c4ccccc34)nc(C)c2c1, the survival was inactive: 86%.
For CCOc1ccc(OCC)c(NC(=O)C2CCN(S(=O)(=O)c3ccc(Br)s3)CC2)c1, the survival was inactive: 80%.
COc1ccccc1CNCC(=O)Nc1cc(C)on1 was tested, and the survival was inactive: 93%.
For Cc1ccc(N2CCN(C(=O)Cc3c(C(=O)O)c(C)cn3C)CC2)c(C)c1, the survival was inactive: 81%.
In the case of Cc1ccc(S(=O)(=O)c2nnn3c2nc(N2CCN(c4ccc(F)cc4)CC2)c2cc(Cl)ccc23)cc1C, the survival was inactive: 99%.
With O=C(Nc1ccc(F)cc1)[C@H](CSCc1ccccc1)N1Cc2ccccc2C1=O the survival was inactive: 61%.
For O=C(COc1ccc(S(=O)(=O)NC2CCCCC2)cc1)Nc1ccc(C(F)(F)F)cc1, the survival was inactive: 64%.
For CC1(C(=O)C[n+]2cccc(C(N)=O)c2)CCC(=O)O1 (centres undefined), the survival was inactive: 92%.
In the case of Cc1cc(N2CCCCC2)nc2ccc(NC(=O)/C=C/c3ccccc3OC(C)C)cc12, the survival was inactive: 73%.
With Cc1ccc(CNC(=O)CSCc2ccc(F)cc2)cc1 the survival was inactive: 103%.
In the case of O=S(=O)(c1ccccc1)n1nc(-c2ccccc2)nc1NCc1ccc(Cl)cc1, the survival was inactive: 76%.
With CCOc1ccc(N(CC)S(=O)(=O)N2CCCC(C(=O)NCc3ccccc3Cl)C2)cc1 (centres undefined) the survival was inactive: 67%.
CCOc1cccc(CC(=O)N2CCc3c([nH]c4ccccc34)C2c2ccc(F)cc2)c1OCC (centres undefined) was tested, and the survival was inactive: 66%.
CC(=O)Nc1ccc(NC(=O)CCNS(=O)(=O)c2cccc3nsnc23)cc1 was tested, and the survival was inactive: 65%.
For COc1cccc(NC(=O)Cn2cc(S(=O)(=O)N3CCCC3)c(S(=O)(=O)N3CCCC3)c2)c1, the survival was inactive: 80%.
With CCOc1ccccc1CNC(=O)c1cc2cc(S(=O)(=O)N3CCCCC3)ccc2n1C the survival was inactive: 101%.
In the case of Cc1ccccc1CNC(=O)Cn1ncn2nc(-c3cccs3)cc2c1=O, the survival was inactive: 106%.
With CCc1ccc2oc(-c3cccc(NC(=O)c4ccc(N5CCC(C)CC5)c([N+](=O)[O-])c4)c3)nc2c1 the survival was inactive: 67%.
Cc1cccc(CSc2cn(CC(=O)N3CCCC3)c3ccccc23)c1 was tested, and the survival was inactive: 47%.
With CCC(Oc1ccccc1)C(=O)Nc1ccc2oc(-c3ccc(OC)cc3)nc2c1 (centres undefined) the survival was inactive: 111%.
In the case of Cn1c(=O)cc(OCCCC(=O)Nc2ccc(F)cc2)c2ccccc21, the survival was inactive: 128%.
CCCN(CCC)CCCNC(=O)C1CCCN(S(=O)(=O)c2cccc3nsnc23)C1 (centres undefined) was tested, and the survival was inactive: 101%.
For Cc1ccccc1-c1nc(CS(=O)(=O)CC(=O)N2CCN(c3ccccc3)CC2)c(C)o1, the survival was inactive: 65%.
CCOc1ccc(CC(=O)Nc2c(C(=O)c3ccc(C)cc3)oc3ccccc23)cc1OCC was tested, and the survival was inactive: 52%.
For CCC(=O)N1CCc2cc(Br)cc(S(=O)(=O)N3CCCC(C(=O)Nc4cccc(Cl)c4C)C3)c21 (centres undefined), the survival was inactive: 67%.
For CCCCNC(=O)CCn1c(=O)c2ccccc2n(Cc2ccccc2C#N)c1=O, the survival was inactive: 86%.
In the case of Cc1ccc(C(=O)COC(=O)C(CC(C)C)NC(=O)C2CCC(C)CC2)cc1 (centres undefined), the survival was inactive: 66%.
In the case of CCc1ccccc1NC(=O)c1ccc2nc(CCc3ccccc3)oc2c1, the survival was inactive: 99%.
In the case of COc1cc(C2N=C(N)Nc3nc4ccccc4n32)ccc1OCCC(C)C (centres undefined), the survival was inactive: 68%.
CC(=O)c1cccc(NC(=O)C2CCCN(c3nnc(-n4cccc4)s3)C2)c1 (centres undefined) was tested, and the survival was inactive: 79%.
For COc1cccc(C(=O)Nc2cc(-c3ccccc3)no2)c1, the survival was inactive: 57%.
With CC(C)CC(=O)Nc1ccc(C(=O)OCc2cc(=O)n3nc(C(C)C)sc3n2)cc1 the survival was inactive: 90%.
With COc1ccc(/C=C/c2nc(C#N)c(NCCc3ccc(OC)c(OC)c3)o2)cc1OC the survival was inactive: 95%.
In the case of COc1ccc(C(=O)N2CC(=O)Nc3ccc(F)cc3C2c2ccc(F)cc2)c(OC)c1 (centres undefined), the survival was inactive: 58%.
CCC1CCc2nc3sc(C(=O)Nc4ccc(F)cc4F)c(N)c3cc2C1 (centres undefined) was tested, and the survival was inactive: 78%.
In the case of CCOC(=O)c1cc(C)n(CC2CCC(C(=O)Nc3ccc(Cl)cc3)CC2)c1C (centres undefined), the survival was active: 46%.
In the case of CCOc1ccc(CCNC(=O)Cn2nnc(-c3ccccc3)n2)cc1OCC, the survival was inactive: 71%.
CC(=O)Nc1cccc(C(=O)NCc2ccc3c(c2)CCN3C(=O)c2ccccc2)c1 was tested, and the survival was inactive: 67%.
With CCC(C)C(=O)N1CCCC(c2nc(-c3cccs3)no2)C1 (centres undefined) the survival was inactive: 108%.
With COc1cc(NS(=O)(=O)c2ccc(NC(=O)c3ccccc3C(=O)O)cc2)nc(OC)n1 the survival was inactive: 58%.
In the case of CCCCNC(=O)CSc1nc2nc(C)c(Cc3ccccc3C)c(C)n2n1, the survival was active: 39%.
With COc1cc(OC)c(NC(=O)NC(C)c2c(-n3cccc3)sc(C)c2C)cc1Cl (centres undefined) the survival was inactive: 121%.
Cc1ccc2cccc(NC(=O)c3ccc(-c4cccc([N+](=O)[O-])c4)o3)c2n1 was tested, and the survival was inactive: 67%.
For O=C(Nc1cccc(C(=O)N2CCN(c3ccc(Cl)cc3)CC2)c1)c1nsc2ccccc12, the survival was inactive: 120%.
For CCCCc1nnc(SCc2cc(=O)c3cc(C(=O)OCC)ccc3[nH]2)n1C, the survival was inactive: 71%.
In the case of O=C(NCc1cccnc1)C1CCN(Cc2cc3ccccc3n2Cc2cccc(Cl)c2)CC1, the survival was inactive: 73%.
For CS(=O)(=O)Nc1ccc2c(c1)OCO2, the survival was inactive: 75%.
In the case of CC(C)CC(NS(=O)(=O)c1ccc2c(c1)oc(=O)n2C)C(=O)NCCc1ccc(Cl)cc1 (centres undefined), the survival was inactive: 84%.
For COC(=O)c1ccc(NC(=O)c2cc(S(=O)(=O)N3CCc4ccccc43)cn2C)cc1, the survival was inactive: 82%.
